Measured values: the supplement of paper PMC8728848
The list shows a part of the results.

Key:
Assay in all cases: glycan array binding signal (z-score within array); higher = stronger binding
Conditions in all cases: glycan notation: IUPAC condensed, linker removed
[1] = target: Glc(b1-6)Glc
Summary of the method: (§1)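 The Consortium for Functional Glycomics database supplied 3228 glycan arrays, of which those lacking an available protein sequence were dropped. The binding signal, a within-array Z-score, was averaged across arrays of the same protein sequence and across linkers. Negative scores can be read as non-binding.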

[2] = target: GlcA(b1-3)Gal
Summary of the method: as §1

[3] = target: GlcA(b1-3)GlcNAc
Summary of the method: as §1

[4] = target: GlcA(b1-6)Gal
Summary of the method: as §1

[5] = target: GlcA3S(b1-3)Gal(b1-4)GlcNAc(b1-2)Man
Summary of the method: as §1

[6] = target: GlcA3S(b1-3)Gal(b1-4)GlcNAc(b1-3)Gal(b1-4)Glc
Summary of the method: as §1

[7] = target: GlcNAc(a1-3)Gal(b1-4)GlcNAc
Summary of the method: as §1

[8] = target: GlcNAc(a1-4)Gal(b1-3)GlcNAc
Summary of the method: as §1

[9] = target: GlcNAc(a1-4)Gal(b1-4)GalNAc
Summary of the method: as §1

[10] = target: GlcNAc(a1-4)Gal(b1-4)GlcNAc
Summary of the method: as §1

[11] = target: GlcNAc(a1-4)Gal(b1-4)GlcNAc(b1-3)Gal(b1-4)Glc
Summary of the method: as §1

[12] = target: GlcNAc(a1-4)Gal(b1-4)GlcNAc(b1-3)Gal(b1-4)GlcNAc
Summary of the method: as §1

[13] = target: GlcNAc(a1-4)Gal(b1-4)GlcNAc(b1-3)Gal(b1-4)GlcNAc(b1-3)Gal(b1-4)GlcNAc
Summary of the method: as §1

[14] = target: GlcNAc(a1-4)Gal(b1-4)GlcNAc(b1-3)Gal(b1-4)[Fuc(a1-3)]GlcNAc(b1-3)Gal(b1-4)[Fuc(a1-3)]GlcNAc
Summary of the method: as §1

[15] = target: GlcNAc(a1-6)Gal(b1-4)GlcNAc
Summary of the method: as §1

[16] = target: GlcNAc(b1-2)Gal(b1-3)GalNAc
Summary of the method: as §1

[17] = target: GlcNAc(b1-2)Man(a1-3)[GlcNAc(b1-2)Man(a1-6)]Man(b1-4)GlcNAc(b1-4)GlcNAc
Summary of the method: as §1

[18] = target: GlcNAc(b1-2)Man(a1-3)[GlcNAc(b1-2)Man(a1-6)]Man(b1-4)GlcNAc(b1-4)[Fuc(a1-6)]GlcNAc
Summary of the method: as §1

[19] = target: GlcNAc(b1-2)Man(a1-3)[GlcNAc(b1-4)][GlcNAc(b1-2)Man(a1-6)]Man(b1-4)GlcNAc(b1-4)GlcNAc
Summary of the method: as §1

[20] = target: GlcNAc(b1-2)Man(a1-3)[GlcNAc(b1-4)][GlcNAc(b1-2)Man(a1-6)]Man(b1-4)GlcNAc(b1-4)[Fuc(a1-6)]GlcNAc
Summary of the method: as §1

[21] = target: GlcNAc(b1-2)[GlcNAc(b1-4)]Man(a1-3)[GlcNAc(b1-2)Man(a1-6)]Man(b1-4)GlcNAc(b1-4)GlcNAc
Summary of the method: as §1

[22] = target: GlcNAc(b1-2)[GlcNAc(b1-4)]Man(a1-3)[GlcNAc(b1-4)][GlcNAc(b1-2)Man(a1-6)]Man(b1-4)GlcNAc(b1-4)GlcNAc
Summary of the method: as §1

[23] = target: GlcNAc(b1-2)[GlcNAc(b1-4)]Man(a1-3)[GlcNAc(b1-4)][GlcNAc(b1-2)[GlcNAc(b1-6)]Man(a1-6)]Man(b1-4)GlcNAc(b1-4)GlcNAc
Summary of the method: as §1

[24] = target: GlcNAc(b1-2)[GlcNAc(b1-4)]Man(a1-3)[GlcNAc(b1-4)][GlcNAc(b1-2)[GlcNAc(b1-6)]Man(a1-6)]Man(b1-4)GlcNAc(b1-4)[Fuc(a1-6)]GlcNAc
Summary of the method: as §1

[25] = target: GlcNAc(b1-2)[GlcNAc(b1-6)]Man(a1-6)[GlcNAc(b1-2)Man(a1-3)]Man(b1-4)GlcNAc(b1-4)GlcNAc
Summary of the method: as §1

[26] = target: GlcNAc(b1-2)[GlcNAc(b1-6)]Man(a1-6)[GlcNAc(b1-2)Man(a1-3)]Man(b1-4)GlcNAc(b1-4)[Fuc(a1-6)]GlcNAc
Summary of the method: as §1

[27] = target: GlcNAc(b1-2)[GlcNAc(b1-6)]Man(a1-6)[GlcNAc(b1-4)][GlcNAc(b1-2)Man(a1-3)]Man(b1-4)GlcNAc(b1-4)GlcNAc
Summary of the method: as §1

[28] = target: GlcNAc(b1-3)Fuc
Summary of the method: as §1

[29] = target: GlcNAc(b1-3)Gal
Summary of the method: as §1

[30] = target: GlcNAc(b1-3)Gal(b1-3)GalNAc
Summary of the method: as §1

[31] = target: GlcNAc(b1-3)Gal(b1-4)Glc
Summary of the method: as §1

[32] = target: GlcNAc(b1-3)Gal(b1-4)GlcNAc
Summary of the method: as §1

[33] = target: GlcNAc(b1-3)Gal(b1-4)GlcNAc(b1-2)Man(a1-3)[GlcNAc(b1-3)Gal(b1-4)GlcNAc(b1-2)Man(a1-6)]Man(b1-4)GlcNAc(b1-4)GlcNAc
Summary of the method: as §1

[34] = target: GlcNAc(b1-3)Gal(b1-4)GlcNAc(b1-2)Man(a1-3)[GlcNAc(b1-3)Gal(b1-4)GlcNAc(b1-2)Man(a1-6)]Man(b1-4)GlcNAc(b1-4)[Fuc(a1-6)]GlcNAc
Summary of the method: as §1

[35] = target: GlcNAc(b1-3)Gal(b1-4)GlcNAc(b1-2)[GlcNAc(b1-3)Gal(b1-4)GlcNAc(b1-6)]Man(a1-6)[GlcNAc(b1-3)Gal(b1-4)GlcNAc(b1-2)Man(a1-3)]Man(b1-4)GlcNAc(b1-4)GlcNAc
Summary of the method: as §1

[36] = target: GlcNAc(b1-3)Gal(b1-4)GlcNAc(b1-3)Gal(b1-4)GlcNAc
Summary of the method: as §1

[37] = target: GlcNAc(b1-3)Gal(b1-4)GlcNAc(b1-3)Gal(b1-4)GlcNAc(b1-2)Man(a1-3)[GlcNAc(b1-3)Gal(b1-4)GlcNAc(b1-3)Gal(b1-4)GlcNAc(b1-2)Man(a1-6)]Man(b1-4)GlcNAc(b1-4)GlcNAc
Summary of the method: as §1

[38] = target: GlcNAc(b1-3)Gal(b1-4)GlcNAc(b1-3)Gal(b1-4)GlcNAc(b1-2)Man(a1-3)[GlcNAc(b1-3)Gal(b1-4)GlcNAc(b1-3)Gal(b1-4)GlcNAc(b1-2)Man(a1-6)]Man(b1-4)GlcNAc(b1-4)[Fuc(a1-6)]GlcNAc
Summary of the method: as §1

[39] = target: GlcNAc(b1-3)Gal(b1-4)GlcNAc(b1-3)Gal(b1-4)GlcNAc(b1-2)[GlcNAc(b1-3)Gal(b1-4)GlcNAc(b1-3)Gal(b1-4)GlcNAc(b1-6)]Man(a1-6)[GlcNAc(b1-3)Gal(b1-4)GlcNAc(b1-3)Gal(b1-4)GlcNAc(b1-2)Man(a1-3)]Man(b1-4)GlcNAc(b1-4)[Fuc(a1-6)]GlcNAc
Summary of the method: as §1

[40] = target: GlcNAc(b1-3)Gal(b1-4)GlcNAc(b1-3)Gal(b1-4)GlcNAc(b1-3)Gal(b1-4)GlcNAc(b1-2)Man(a1-3)[GlcNAc(b1-3)Gal(b1-4)GlcNAc(b1-3)Gal(b1-4)GlcNAc(b1-3)Gal(b1-4)GlcNAc(b1-2)Man(a1-6)]Man(b1-4)GlcNAc(b1-4)GlcNAc
Summary of the method: as §1

[41] = target: GlcNAc(b1-3)Gal(b1-4)GlcNAc(b1-3)Gal(b1-4)GlcNAc(b1-3)Gal(b1-4)GlcNAc(b1-2)Man(a1-3)[GlcNAc(b1-3)Gal(b1-4)GlcNAc(b1-3)Gal(b1-4)GlcNAc(b1-3)Gal(b1-4)GlcNAc(b1-2)Man(a1-6)]Man(b1-4)GlcNAc(b1-4)[Fuc(a1-6)]GlcNAc
Summary of the method: as §1

[42] = target: GlcNAc(b1-3)Gal(b1-4)GlcNAc(b1-3)Gal(b1-4)GlcNAc(b1-3)Gal(b1-4)GlcNAc(b1-2)[GlcNAc(b1-3)Gal(b1-4)GlcNAc(b1-3)Gal(b1-4)GlcNAc(b1-3)Gal(b1-4)GlcNAc(b1-6)]Man(a1-6)[GlcNAc(b1-3)Gal(b1-4)GlcNAc(b1-3)Gal(b1-4)GlcNAc(b1-3)Gal(b1-4)GlcNAc(b1-2)Man(a1-3)]Man(b1-4)GlcNAc(b1-4)[Fuc(a1-6)]GlcNAc
Summary of the method: as §1

[43] = target: GlcNAc(b1-3)Gal(b1-4)GlcNAc(b1-3)Gal(b1-4)GlcNAc(b1-3)Gal(b1-4)GlcNAc(b1-3)Gal(b1-4)GlcNAc(b1-2)Man(a1-3)[GlcNAc(b1-3)Gal(b1-4)GlcNAc(b1-3)Gal(b1-4)GlcNAc(b1-3)Gal(b1-4)GlcNAc(b1-3)Gal(b1-4)GlcNAc(b1-2)Man(a1-6)]Man(b1-4)GlcNAc(b1-4)GlcNAc
Summary of the method: as §1

[44] = target: GlcNAc(b1-3)Gal(b1-4)GlcNAc(b1-3)Gal(b1-4)GlcNAc(b1-3)Gal(b1-4)GlcNAc(b1-3)Gal(b1-4)GlcNAc(b1-2)Man(a1-3)[GlcNAc(b1-3)Gal(b1-4)GlcNAc(b1-3)Gal(b1-4)GlcNAc(b1-3)Gal(b1-4)GlcNAc(b1-3)Gal(b1-4)GlcNAc(b1-2)Man(a1-6)]Man(b1-4)GlcNAc(b1-4)[Fuc(a1-6)]GlcNAc
Summary of the method: as §1

[45] = target: GlcNAc(b1-3)Gal(b1-4)GlcNAc(b1-3)Gal(b1-4)GlcNAc(b1-3)Gal(b1-4)GlcNAc(b1-3)Gal(b1-4)GlcNAc(b1-2)[GlcNAc(b1-3)Gal(b1-4)GlcNAc(b1-3)Gal(b1-4)GlcNAc(b1-3)Gal(b1-4)GlcNAc(b1-3)Gal(b1-4)GlcNAc(b1-6)]Man(a1-6)[GlcNAc(b1-3)Gal(b1-4)GlcNAc(b1-3)Gal(b1-4)GlcNAc(b1-3)Gal(b1-4)GlcNAc(b1-3)Gal(b1-4)GlcNAc(b1-2)Man(a1-3)]Man(b1-4)GlcNAc(b1-4)[Fuc(a1-6)]GlcNAc
Summary of the method: as §1

B1: Pwp4 (Candida glabrata) (protein)
chain: MGSSHHHHHHSSGLVPRGSHMASVGNPITVSNVCSFPKNWHRTAGFRALTARLGIGIQSDSYKELLNYPGTFQLTTQQSSTTKPNFQISGLVGNIYGLTIVPSYLLVELTGYFVPPVSGEYTFSLEGSDDAAIIFIANPSTFKCGHVEDWPTAYDNDVTVTESIHATRTIYMIEGVAYPIRIAYYNGLSLGKLQASFTDPEGVKRVDWNGYIWRYDSCDTCSYV
glycan array binding signal (z-score) [1]: -2.69
glycan array binding signal (z-score) [2]: 0.623
glycan array binding signal (z-score) [3]: -0.506
glycan array binding signal (z-score) [4]: -0.803
glycan array binding signal (z-score) [5]: 1.18
glycan array binding signal (z-score) [6]: 2.74
glycan array binding signal (z-score) [7]: 0.005
glycan array binding signal (z-score) [8]: -0.698
glycan array binding signal (z-score) [9]: -0.853
glycan array binding signal (z-score) [10]: -0.021
glycan array binding signal (z-score) [11]: 1.52
glycan array binding signal (z-score) [12]: 0.102
glycan array binding signal (z-score) [13]: -0.547
glycan array binding signal (z-score) [14]: 0.399
glycan array binding signal (z-score) [15]: 1.07
glycan array binding signal (z-score) [16]: 2.07
glycan array binding signal (z-score) [17]: -0.379
glycan array binding signal (z-score) [18]: -0.464
glycan array binding signal (z-score) [19]: -0.42
glycan array binding signal (z-score) [20]: -1
glycan array binding signal (z-score) [21]: -0.085
glycan array binding signal (z-score) [22]: 0.18
glycan array binding signal (z-score) [23]: -0.334
glycan array binding signal (z-score) [24]: 0.337
glycan array binding signal (z-score) [25]: 7.51
glycan array binding signal (z-score) [26]: 0.645
glycan array binding signal (z-score) [27]: -0.459
glycan array binding signal (z-score) [28]: -0.603
glycan array binding signal (z-score) [29]: -0.52
glycan array binding signal (z-score) [30]: -0.481
glycan array binding signal (z-score) [31]: -0.768
glycan array binding signal (z-score) [32]: -0.686
glycan array binding signal (z-score) [33]: -0.17
glycan array binding signal (z-score) [34]: 1.17
glycan array binding signal (z-score) [35]: 1.21
glycan array binding signal (z-score) [36]: 0.125
glycan array binding signal (z-score) [37]: 2.84
glycan array binding signal (z-score) [38]: 1.26
glycan array binding signal (z-score) [39]: 4.62
glycan array binding signal (z-score) [40]: 1.16
glycan array binding signal (z-score) [41]: 0.082
glycan array binding signal (z-score) [42]: 5.36
glycan array binding signal (z-score) [43]: -0.02
glycan array binding signal (z-score) [44]: -0.153
glycan array binding signal (z-score) [45]: 4.3
